In all, about 150,000 compounds went through this assay and about 6,500 (4.3%) were called active. The shares of active, inactive and inconclusive entries below differ from those in the screen. Calls follow the shape of the dose curve; as a rule, active = well fitted inhibition curve with a large enough effect (not every such curve was filed as active); inconclusive = small, poorly fitted or top-dose-only effect, or another doubt; inactive = no such curve, though single readings can be large or run the other way. Potencies of inconclusive entries are left out as doubtful fits.
Target: 15-hydroxyprostaglandin dehydrogenase [NAD(+)] (Homo sapiens) (UniProt P15428)
UniProt P15428, sequence (P15428 whole entry, looked up): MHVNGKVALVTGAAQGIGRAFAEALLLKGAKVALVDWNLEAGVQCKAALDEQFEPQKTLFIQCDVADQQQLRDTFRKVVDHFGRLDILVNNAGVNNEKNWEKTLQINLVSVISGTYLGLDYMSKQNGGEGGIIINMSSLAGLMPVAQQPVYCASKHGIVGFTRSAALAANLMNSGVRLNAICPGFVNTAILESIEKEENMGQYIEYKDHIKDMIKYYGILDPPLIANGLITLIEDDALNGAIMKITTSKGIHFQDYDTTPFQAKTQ
Assay: qHTS Assay for Inhibitors of HPGD (15-Hydroxyprostaglandin Dehydrogenase)
Conditions: purified HPGD, NADH fluorescence kinetic, PGE2 substrate; activity change, negative = inhibition: active compounds read low
Method in brief: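 NADH formation kinetics: reaction with 30 uM PGE2 and 1 mM NAD+ (final), 20 nM enzyme, Tris-HCl pH 8 with Tween 20, after 15 min compound preincubation at room temperature. Fluorescence change, last versus first of five reads.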
% is scaled to controls: 0 for no effect and ±100 for the full control effect; potency is read from the fitted curve at half-maximal effect; tags tell the direction and shape of the fitted curve.

| SMILES | Potency | activity change, negative = inhibition |
| --- | --- | --- |
| COc1ccc(C2CC(=O)N3CN(c4ccc(C)c(Cl)c4)CSC3=C2C#N)cc1OC (centres undefined) | inconclusive [inhibitor, single point] | – |
| O=C(O)CCc1c2ccc(=O)c(O)c-2oc2c(O)c(O)ccc12 | active: 2.82 µM | – |
| Cc1cc(Nc2ccc(C)c(Br)c2)n2nc(C)nc2n1 | inconclusive [inhibitor, partial curve] | – |
| CCC(=O)Nc1ccccc1C(=O)OCc1ccc(C(=O)c2ccccc2)cc1 | active: 14.1 µM | – |
| O=S1(=O)C[C@@H](N2CCOCC2)[C@H](N2CCOCC2)C1 | inconclusive [inhibitor, partial curve] | – |
| COc1ccc(CCNC(=O)COC(=O)/C=C/c2ccc(OC)c(OC)c2)cc1 | inconclusive [inhibitor, single point] | – |
| COCCCn1c(-c2ccc(S(=O)(=O)N3CCOCC3)cc2)csc1=Nc1ccccc1 | inconclusive [inhibitor, partial curve] | – |
| CC1CC1C(=O)Nc1ccc(-c2ccccc2)cc1 (centres undefined) | inconclusive [inhibitor, partial curve] | – |
| CCNC(=O)c1cc2c(=O)n3cccc(C)c3nc2n(Cc2ccc(C)cc2)c1=N | inconclusive [inhibitor, partial curve] | – |
| C=C(C)Cn1c(-c2ccc(OC)cc2)nc2ccccc21 | inconclusive [inhibitor, partial curve] | – |
| O=C1/C(=C/c2ccccc2O)SC(=S)N1Cc1cccnc1 | active: 2.82 µM | – |
| N#CC1=C(N)NC(SCc2ccccc2)=C(C#N)C12CCCC2 | inconclusive [inhibitor, single point] | – |
| Cc1ccc(S(=O)(=O)Nc2cc(C(=O)NCCN(C)C)ccc2N2CCCCC2)cc1 | – | inactive: -6.5% |
| Cc1c(C(c2ccc([N+](=O)[O-])cc2)c2c(C)n(C)n(-c3ccccc3)c2=O)c(=O)n(-c2ccccc2)n1C | – | inactive: -9.43% |
| Cc1cc(C)c[n+](CC(=O)c2cc3ccccc3oc2=O)c1 | inconclusive [inhibitor, single point] | – |
| CCCc1nc2ccccc2c(C(=O)OC(C)C(=O)NCc2ccc3c(c2)OCO3)c1CC (centres undefined) | – | inactive: -20.7% |
| COC(=O)C1=CN(CC2CCCO2)C=C(C(=O)OC)C1c1ccsc1 (centres undefined) | inconclusive [inhibitor, partial curve] | – |
| CC(C)CCOc1ccc(-c2c(=O)n(OCc3ccc([N+](=O)[O-])cc3)c3ccccc3[n+]2[O-])cc1 | inconclusive [inhibitor, partial curve] | – |
| O=C(Nc1ccc(Nc2ccccc2)cc1)C(Cl)Cl | active: 22.4 µM | – |
| CCOC(=O)c1c(O)[nH]c(=O)c(CC)c1C | – | inactive: -3.65% |
| CCOc1c2ccc(C(=O)NCc3ccccc3OC)cc2nn1CC | inconclusive [inhibitor, partial curve] | – |
| COc1ccc(NC(=O)C2CCC(CNc3c(N4CCC(C)CC4)c(=O)c3=O)CC2)cc1OC (centres undefined) | inconclusive [inhibitor, single point] | – |
| Cc1ccc2c(c1)c1c(n2CC(O)Cn2nc(C)c(Br)c2C)C(=O)CCC1 (centres undefined) | inconclusive [inhibitor, partial curve] | – |

| SMILES | Potency | activity change, negative = inhibition |
| --- | --- | --- |
| O=S(=O)(/N=S1/CC=CCN1S(=O)(=O)c1ccccc1)c1ccccc1 (centres undefined) | active: 7.94 µM | – |
| O=C1C(Cl)=C(NCC2CCCO2)C(=O)N1C1CCCCC1 (centres undefined) | – | inactive: -24.8% |
| Cc1ccc(-n2nnnc2C(Cl)c2nnnn2-c2ccc(C)cc2)cc1 | active: 5.01 µM | – |
| CCOc1ccc(-n2c(C)nc3cc(C(=O)NCc4ccc5c(c4)OCO5)ccc32)cc1 | inconclusive [inhibitor, partial curve] | – |
| O=C1N/C(=C/c2ccc(N3CCOCC3)o2)C(=O)N1c1ccccc1 | inconclusive [inhibitor, single point] | – |
| CCCOC(=O)c1ccc(NC(=O)C2C3C=CC(O3)C2C(=O)O)cc1 (centres undefined) | inconclusive [inhibitor, single point] | – |
| O=C(COC(=O)c1cc(S(=O)(=O)N2CCOCC2)ccc1O)NCCc1ccccc1 | inconclusive [inhibitor, single point] | – |
| Cc1nc(N2CCOCC2)c2nc(-c3ccccc3)n(CCN3CCCC3)c2n1 | inconclusive [inhibitor, partial curve] | – |
| O=C1NN(c2ccccc2)C(=O)/C1=C/c1ccc(Sc2cccc3ccccc23)o1 | active: 17.8 µM | – |
| CCCCCCc1cc2cc(C(=O)Nc3ccccc3)c(=O)oc2cc1O | inconclusive [inhibitor, partial curve] | – |
| O=C(c1cccc(C(F)(F)F)c1)N1CCCCCC1 | inconclusive [inhibitor, partial curve, poor fit] | – |
| O=C(c1nc2ccccc2s1)N1CCSCC1 | active: 8.91 µM | – |
| C=CCc1cc(/C=C2/NC(=S)NC2=O)cc(OC)c1O | active: 25.1 µM | – |
| CCc1ccc2[nH]c(=O)c(CN(Cc3ccc(OC)cc3)Cc3nnnn3CCOC)cc2c1 | inconclusive [inhibitor, partial curve] | – |
| O=C(CCSc1nnc2ccc3ccccc3n12)Nc1ccc(F)cc1 | inconclusive [inhibitor, partial curve] | – |
| Cc1nc(NC(=O)c2ccccc2)sc1-c1csc(Nc2ccc(Cl)cc2Cl)n1 | inconclusive [inhibitor, partial curve] | – |
| O=C(Nc1ccc(F)cc1)C1CCN(c2nnnn2-c2ccccc2)CC1 | – | inactive: -7.69% |
| CCc1nnc2sc(-c3ccc(NC(=O)c4ccc5c(c4)OCCO5)cc3)nn12 | inconclusive [inhibitor, partial curve] | – |
| CCCC(=O)Nc1ccc(Cl)c(NC(=O)c2cccnc2)c1 | – | inactive: -4.04% |
| c1ccc(-c2cc3c(ccc4nonc43)nn2)cc1 | – | inactive: -14.9% |
| N=c1oc2ccc3ccccc3c2cc1-c1nnc2n1CCCCC2 | inconclusive [inhibitor, partial curve] | – |
| N#Cc1ccc(C23CC4CC(CC(C4)C2)C3)[nH]c1=O | inconclusive [inhibitor, partial curve] | – |
| COc1cc(-c2n[nH]c(=S)n2-c2cccc(C(F)(F)F)c2)cc(OC)c1OC | inconclusive [inhibitor, partial curve] | – |

| SMILES | Potency | activity change, negative = inhibition |
| --- | --- | --- |
| CCN(CC)c1ccc(/C=N/NC(=S)NCc2ccc(OC)cc2)cc1 | inconclusive [inhibitor, partial curve] | – |
| O=C(CCC(=O)N1CCN(c2ccccn2)CC1)Nc1nnc(C2CCCCC2)s1 | inconclusive [inhibitor, partial curve] | – |
| COc1ccc(OC)c(-c2cc(C(=O)Nc3c(C)nn(Cc4ccccc4C)c3C)no2)c1 | inconclusive [inhibitor, partial curve] | – |
| O=C1NC(=Nc2ccccc2)S/C1=C\C=C\c1ccco1 | active: 28.2 µM | – |
| COc1cc2c(cc1OC)C1(Nc3c-2c(C)nn3-c2ccccc2)C(=O)Nc2ccccc21 (centres undefined) | – | inactive: -5.5% |
| COc1ccc(-c2nc3cnc(OC)nc3n(Cc3cccc(OC)c3)c2=O)cc1 | inconclusive [inhibitor, partial curve] | – |
| CCCc1cc(N2CCCC(C(=O)NCC)C2)n2ncnc2n1 (centres undefined) | inconclusive [inhibitor, partial curve] | – |
| O=C(CCCN1C(=O)c2cccc3cccc(c23)C1=O)N1CCN(c2ccccc2O)CC1 | inconclusive [inhibitor, partial curve] | – |
| COc1cccc(/C=C/C(=O)OCC(=O)Nc2ccccc2Sc2ccccc2)c1 | inconclusive [inhibitor, single point] | – |
| Cc1cccc(Nc2nnc(SCC3CCCCO3)s2)c1C (centres undefined) | inconclusive [inhibitor, partial curve] | – |
| CCCNC(=O)CN(C)S(=O)(=O)c1c(C)cc(C)cc1C | – | inactive: 2.38% |
| Cc1ccc(/C=C/C(=O)Nc2ccc(Oc3ccccc3)cc2)o1 | active: 25.1 µM | – |
| CCc1ccc(NC(=O)N(CCN2CCOCC2)Cc2ccc3c(c2)CCCN3CC)cc1 | inconclusive [inhibitor, partial curve] | – |
| Cc1nc2ccccn2c1-c1csc(NCc2ccco2)n1 | inconclusive [inhibitor, partial curve] | – |
| O=C(CNC(=O)c1ccc(Oc2ccccc2)cc1)OC1CCCCC1=O (centres undefined) | – | inactive: -15.6% |
| Cc1ccccc1OCC(=O)NCC(=O)OCC(=O)c1ccc2ccccc2c1 | inconclusive [inhibitor, partial curve] | – |
| CCN(CC)C(=O)C1CCN(c2ncnc3c2cnn3-c2ccc(C)cc2C)CC1 | active: 22.4 µM | – |
| Fc1ccc(CNC(=S)Nc2ccc(Cl)cc2)cc1 | – | inactive: -14.9% |
| O=C(O)CCc1ccc(-c2ccccc2)n1CC1CCCO1 (centres undefined) | inconclusive [inhibitor, partial curve] | – |
| COc1cc(NC(=S)NCc2ccco2)cc(OC)c1 | inconclusive [inhibitor, partial curve, poor fit] | – |
| S=c1[nH]nc(C2CCCCC2)n1/N=C/c1cccs1 | active: 12.6 µM | – |
| COc1cc(N(C)C)c([N+](=O)[O-])cc1C(=O)NC(C)CNc1ccc([N+](=O)[O-])cc1Cl (centres undefined) | – | inactive: -20.4% |
| CCC(c1nnnn1CCc1ccccc1)N(Cc1ccco1)Cc1cc2cccc(C)c2[nH]c1=O (centres undefined) | – | inactive: -19.8% |

From PubChem BioAssay AID894 (National Center for Advancing Translational Sciences (NCATS), 2007)
